From PubChem BioAssay AID493014 (National Center for Advancing Translational Sciences (NCATS), 2011)
In all, about 340,000 compounds went through this assay and about 170 (0.05%) were called active. About 26% were inconclusive and are not listed. Calls follow the shape of the dose curve; as a rule, active = well fitted inhibition curve with a large enough effect in the signal ratio, with a control signal flat (not every such curve was filed as active); inconclusive = small, poorly fitted or top-dose-only effect, or effect the other way, or a change in a side signal; inactive = flat fitted curve, though single readings scatter; the % refers to the signal ratio. Only a part is listed here, and it is no random draw.

Assay: qHTS Assay to Find Inhibitors of Chronic Active B-Cell Receptor Signaling;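 as to activity change, negative = inhibition: plate controls were basal doxycycline-induced cells for no effect and cells given 10 µM MG132 for full effect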
Conditions: ABC-DLBCL IkBa-CBG/CBR reporter, luminescence ratio (green luciferase fused to IkBa over red control in TMD8 lymphoma cells), 4 h; series mostly up to 46.1 µM; activity change, negative = inhibition: at the top concentration
Procedure, shortened: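 Cell line TMD8 (human ABC DLBCL), stably expressing tet-inducible CBG68-IkBa fusion and CBR; IMDM/0.5% FBS; cpd up to 46 uM; dox induction, 4 h, 37C/5% CO2; dual luminescence; green/red ratio; MG132 control.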
Potency is read from the fitted curve at half-maximal effect.

Question: With `Cc1cn([C@H]2C=C[C@@H](CO)O2)c(=O)[nH]c1=O` as the compound, how does the “activity change, negative = inhibition” value read?
Answer: inactive: 2.11%

Question: Which “activity change, negative = inhibition” value does the source give for `Cc1c(C(=O)Nc2ccc(F)c(F)c2)oc2ccc(S(=O)(=O)N3CCCCC3)cc12` here?
Answer: inactive: 9.05%

Question: With `CC(=O)CC(c1ccccc1)c1c(O)c2ccccc2oc1=O` (stereo not given) as the compound, how does the “activity change, negative = inhibition” value read?
Answer: inactive: -0.146%

Question: Which Potency does the source give for `O=c1cc(-c2cccc(F)c2)[nH]c2ccccc12` here?
Answer: active: 20.6 µM

Question: Which “activity change, negative = inhibition” value does the source give for `CC(/C=C1\SC(=S)N(C(C(=O)O)C(C)C)C1=O)=C\c1ccccc1` (stereo not given) here?
Answer: inactive: 0.472%

Question: Which “activity change, negative = inhibition” value does the source give for `COC(C[C@H](O)C[C@@H](O)[C@@H](C)OCc1ccccc1)OC` here?
Answer: inactive: -0.571%

Question: For `COc1cc(NC(=O)N2CCNC2=O)cc(C(=O)Nc2cccc(C(F)(F)F)c2)c1`, which Potency is on record?
Answer: active: 17.8 µM

Question: With `COc1ccc(-c2noc(CSc3nc(N)c(-c4ccccc4)c(=O)[nH]3)n2)cc1` as the compound, how does the Potency read?
Answer: active: 16.4 µM

Question: With `NC(=O)c1ccnc2c(O)cccc12` as the compound, how does the “activity change, negative = inhibition” value read?
Answer: inactive: 17.7%

Question: With `CC(C)(C)OC(=O)C[C@@H]1C/C=C\C[C@@H](CC(=O)N(CCO)Cc2ccccc2)C(=O)N2CCC[C@H]2COC1=O` as the compound, how does the “activity change, negative = inhibition” value read?
Answer: inactive: 0.208%

Question: For `Cc1ccc(C(=O)/C=C/C(=O)c2ccc(C)cc2)cc1`, which “activity change, negative = inhibition” value is on record?
Answer: inactive: 2.07%

Question: For `C=CCN=C1N[C@@H](c2cccc(C(F)(F)F)c2)C(C(=O)OC)=C(C)N1CC`, which “activity change, negative = inhibition” value is on record?
Answer: inactive: -5.67%

Question: Which “activity change, negative = inhibition” value does the source give for `COc1ccc2c(c1OC)C(=O)O[C@@H]2[C@H]1c2c(cc3c(c2OC)OCO3)CCN1C` here?
Answer: inactive: 3.37%

Question: For `O=C(NN1C(=O)C2C3C=CC([C@@H]2C1=O)C31CC1)c1ccccc1` (stereo not given in full), which “activity change, negative = inhibition” value is on record?
Answer: inactive: 0.471%

Question: For `COc1ccc(NC(=O)N(C)C[C@H]2Oc3ccc(NS(=O)(=O)c4cccs4)cc3C(=O)N([C@H](C)CO)C[C@@H]2C)cc1`, which “activity change, negative = inhibition” value is on record?
Answer: inactive: -0.296%

Question: For `COc1ccc(/C=N/NC(=O)c2ccc(CSc3nc(C)cc(C)n3)cc2)cc1O`, which Potency is on record?
Answer: active: 16.4 µM

Question: Which “activity change, negative = inhibition” value does the source give for `CCN1C(=O)[C@@H]2[C@@H](c3ccc(-c4ccc(F)cc4)cc3)N3CCCC[C@@]3(C(=O)OC)[C@@H]2C1=O` here?
Answer: inactive: 0.778%

Question: For `O=C(C1=C[C@H](C2CCCCC2)C[C@H](OCCCCO)O1)N1CCN(Cc2ccccc2)CC1`, which “activity change, negative = inhibition” value is on record?
Answer: inactive: 8.01%

Question: For `CC(=O)C[C@@H](O)CC(=O)[C@@H]1OC(=O)CCCCCc2ccccc21`, which “activity change, negative = inhibition” value is on record?
Answer: inactive: -2.19%

Question: Which “activity change, negative = inhibition” value does the source give for `C=CCN1C(=O)C2(c3ccccc31)C1CCCC=C1C(C#N)=C(N)C2(C#N)C#N` (stereo not given) here?
Answer: inactive: -0.748%
